Laboratory results taken from PubChem BioAssay AID485297 (National Center for Advancing Translational Sciences (NCATS), 2010).
The whole screen tested about 320,000 compounds, of which about 9,100 (2.8%) were called active. The shares of active, inactive and inconclusive entries below differ from those in the screen. Calls follow the shape of the dose curve; as a rule, active = well fitted activation curve with a large enough effect; inconclusive = small, poorly fitted or top-dose-only effect; inactive = no such curve, though single readings can be large or run the other way. Potencies of inconclusive entries are left out as doubtful fits.
Potency is read from the fitted curve at half-maximal effect; tags tell the direction and shape of the fitted curve.

Assay: qHTS Assay for Rab9 Promoter Activators; also: nearly all actives have a fitted effect of over 60% in size; as to activation, negative = inhibition: % of control where 0% means no effect
Details: Huh7 Rab9 promoter-luciferase reporter, luminescence, 24 h; series mostly up to 9.22 µM; activation, negative = inhibition: at the top concentration
Outline: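 Luminescence from Amplite-detected luciferase (10 minutes, ambient) reports Rab9 promoter activation. Before that, stable Rab9-luciferase Huh7 cells (1500/well, reduced-serum OP-MEM I plus 10% FBS) were exposed to compound for 24 hours at 37C.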
In the case of O=C(COc1ccc(Cl)cc1Br)NC(=O)NC1CCCC1, the Potency is reported as active: 3.16 µM.
For COc1ccc(S(=O)(=O)Cc2ccc(C(=O)N3CCN(c4cccc(C)c4)C(C)C3)o2)cc1 (stereo unspecified), the “activation, negative = inhibition” value was inactive: -8.08%.
For O=C(NCC(F)(F)F)Nc1cccnc1, the “activation, negative = inhibition” value was inactive: 7.05%.
For CCc1nnc(NC(=O)/C=C/c2ccco2)s1, the Potency was active: 1.78 µM.
With CC(C)C(=O)Nc1ccc(NC(=O)c2ccccn2)cn1 the Potency was active: 0.562 µM.
With CN1CCN(c2ccc(C(=O)c3ccc(F)cc3)cc2)CC1 the Potency was active: 3.16 µM.
For CC[N+]1(CC)CC2=Cc3c(ccc4ccccc34)C(C)C2C1 (stereo unspecified), the “activation, negative = inhibition” value was inactive: 0.775%.
For CC(=O)N(Cc1ccccc1)Cc1cn(CCC#N)nc1-c1cccc([N+](=O)[O-])c1, the “activation, negative = inhibition” value was inactive: 7.52%.
In the case of Cc1ccc(NC(=O)Nc2cnccn2)cc1Cl, the Potency is reported as inconclusive [activator, single point].
In the case of CCOC(=O)CCSc1nc(C)c2cc(OC)ccc2n1, the Potency is reported as inconclusive [activator, single point].
For Cc1[nH][nH]c(=O)c1C(c1ccc(-c2cccc(C(=O)O)c2)o1)c1c(C)[nH][nH]c1=O, the Potency was inconclusive [activator, single point].
For Cn1nccc1C(=O)Nc1ccc2c(c1)OCO2, the Potency was inconclusive [activator, partial curve].
For CC1(C)CSC(=NCCc2ccccc2)N1, the “activation, negative = inhibition” value was inactive: 7.87%.
For CCOC(=O)c1sc(NC(=O)c2cccs2)cc1C, the Potency was active: 1.78 µM.
In the case of Cc1cc(C)n(-c2ccc(C(=O)Nc3cccnc3Cl)cc2)n1, the “activation, negative = inhibition” value is reported as inactive: 13.9%.
In the case of Nc1nnc(Cc2ccc(Cl)c(Cl)c2)s1, the “activation, negative = inhibition” value is reported as inactive: 3.21%.
For CNc1cnn(-c2ccc(C)cc2)c(=O)c1Cl, the Potency was active: 3.16 µM.
For O=C(c1ccc(-c2ccccc2)cc1)C1CCCN(Cc2ccncc2)C1 (stereo unspecified), the Potency was active: 1.26 µM.
With COC(=O)c1sccc1NC(=S)Nc1cccc(F)c1 the “activation, negative = inhibition” value was inactive: -2.59%.
In the case of COCCNC(=O)c1sc2nc(-c3ccccc3)cn2c1C, the Potency is reported as inconclusive [activator, single point].
With O=[N+]([O-])c1ccc(N2CCN(CCOc3nonc3-c3ccccc3)CC2)c(Cl)c1 the “activation, negative = inhibition” value was inactive: -8.9%.
In the case of CCOC(=O)c1cc2c(C)n(-c3ccc(OCC)cc3)c(C)c2ccc1=O, the “activation, negative = inhibition” value is reported as inactive: -3.71%.
For CCOc1ccc(OCc2cccc(C(=O)N3CCCC3)c2)cc1, the Potency was active: 0.447 µM.
With S=C(c1ccc(-c2ccccc2)o1)N1CCCCC1 the Potency was inconclusive [activator, partial curve].
In the case of CCN(CC)C(=O)Oc1ccc2c(=O)c(-c3ccc(OC)cc3)coc2c1, the Potency is reported as inconclusive [activator, partial curve].
With Cc1ccc(Cl)c(OCC(=O)Nc2cccnc2)c1 the “activation, negative = inhibition” value was inactive: 8.27%.
With COc1cc(OC)cc(C(=O)Nc2nc3ccccc3[nH]2)c1 the Potency was inconclusive [activator, single point].
With CCn1c(-c2ccccc2)csc1=Nc1ccc(S(=O)(=O)O)cc1 the Potency was inconclusive [activator, single point].
For COc1ccc2cc(C(=O)NCc3ccco3)c(=O)oc2c1, the Potency was inconclusive [activator, single point].
In the case of C=CCNC(=O)C1CC(=O)N(c2ccc(OCc3ccccc3Cl)cc2)C1 (stereo unspecified), the Potency is reported as inconclusive [activator, partial curve].
With O=C(O)c1ccccc1C(=O)Nc1ccc(Oc2cccc3ccccc23)cc1 the “activation, negative = inhibition” value was inactive: -1.87%.
In the case of O=C(Nc1nc2ccc(F)cc2s1)C1=COCCO1, the Potency is reported as active: 0.282 µM.
For COc1cccc2sc(N(CCN(C)C)C(=O)c3ccc4c(c3)CCCC4)nc12, the “activation, negative = inhibition” value was inactive: 4.44%.
For CCOC(=O)c1ccc(NC(=S)NNC(C)(C)C)cc1, the Potency was inconclusive [activator, single point].
With CN(Cc1cccnc1)C(=O)c1cc(COc2ccc3ncccc3c2)on1 the “activation, negative = inhibition” value was inactive: -26.6%.
In the case of Cc1cc(C)nc(SCC(=O)c2ccc(F)cc2)n1, the “activation, negative = inhibition” value is reported as inactive: 20.8%.
With CN(C)c1ccc(/C=C2\SC(=O)N(CC(O)Cn3c4ccccc4c4ccccc43)C2=O)cc1 (stereo unspecified) the “activation, negative = inhibition” value was inactive: -2.18%.
With COc1cc2[nH]c(C(=O)N3CCc4ccccc43)cc2c(OC)c1OC the Potency was inconclusive [activator, single point].
For CC1CCN(S(=O)(=O)c2nnc(NC(=O)c3cccc([N+](=O)[O-])c3)s2)CC1, the “activation, negative = inhibition” value was inactive: -0.384%.
In the case of CCCCc1ccc(Nc2ncnc3nc[nH]c23)cc1, the Potency is reported as inconclusive [activator, partial curve].
For Nc1ccc2oc(-c3ccccn3)nc2c1, the Potency was inconclusive [activator, partial curve].
For CCOC(=O)c1cccc(NC(=O)c2cnccn2)c1, the Potency was inconclusive [activator, partial curve].
With OCCOCCNc1ncnc2c1cnn2-c1ccccc1 the Potency was inconclusive [activator, partial curve].
With CCCC1(C(=O)OC)NC(c2cc(OC)c(OC)c(OC)c2)C2C(=O)N(CC)C(=O)C21 (stereo unspecified) the “activation, negative = inhibition” value was inactive: -0.161%.
In the case of CC(C)Nc1oc(-c2cccc3ccccc23)nc1C#N, the Potency is reported as inconclusive [activator, single point].
For Cc1ccc(-n2cc(-c3ccccc3)[nH]c2=O)cc1F, the Potency was active: 3.16 µM.
With Cc1ccc(CCNC(=O)NC(C)(C)C)cc1 the Potency was inconclusive [activator, partial curve].
In the case of Brc1ccc(OCc2nc3ccccc3[nH]2)cc1, the Potency is reported as active: 2.51 µM.
In the case of O=C(Nc1ccccn1)c1csc2c1CCCC2, the Potency is reported as active: 1.78 µM.
With COCCN(C(=O)Cc1cccs1)C(C(=O)NC1CCCC1)c1cc(OC)c(OC)c(OC)c1 (stereo unspecified) the Potency was inconclusive [activator, single point].
With Cc1ccc(/C(N)=N/OC(=O)C23CC4CC(CC(C4)C2)C3)cc1 the Potency was inconclusive [activator, partial curve].
In the case of CCC(=O)NCCc1nc2cc(NC(=O)c3cccs3)ccc2n1C, the Potency is reported as inconclusive [activator, single point].
With Cc1ccsc1/C=N/Nc1cccc(C(=O)O)c1 the Potency was active: 0.0032 µM.
In the case of CCOc1ccc(Nc2nc(N)c3ccccc3n2)cc1, the Potency is reported as active: 0.708 µM.
In the case of O=C1c2ccccc2C(=O)N1CCOc1ccccc1Br, the Potency is reported as inconclusive [activator, partial curve].
In the case of CC(=O)N1CCCN(Cc2cn(-c3cc(C)ccc3C)nc2-c2ccccc2)CC1, the “activation, negative = inhibition” value is reported as inactive: -1.81%.
With CCC(=O)NCCCc1nc2ccccc2n1Cc1ccccc1F the Potency was inconclusive [activator, partial curve].
In the case of Cc1cc(NO)nc(-c2ccc(Br)cc2)n1, the Potency is reported as active: 4.47 µM.
With O=C(NC1CCCC1)C1CC(c2ccc(F)cc2)=NO1 (stereo unspecified) the Potency was inconclusive [activator, single point].
With O=C(Nc1ccc(N2CCCC2=O)cc1)c1cccc(F)c1 the Potency was active: 3.16 µM.
In the case of Cc1cc(C)nc(Nc2n[nH]c(COc3ccccc3)n2)n1, the Potency is reported as inconclusive [activator, partial curve].
In the case of COc1ccc(OCc2cc(C(=O)NC(C)c3cnn(C)c3)no2)c(Cl)c1 (stereo unspecified), the Potency is reported as inconclusive [activator, partial curve].
In the case of O=C(c1ccco1)N1CCN(c2nc3ccsc3c(=O)s2)CC1, the “activation, negative = inhibition” value is reported as inactive: 17.6%.
With CN(C)c1ccc(C(=O)/C=C/c2cccnc2)cc1 the Potency was inconclusive [activator, partial curve].
In the case of CC1=NN(c2ccc(Cl)c(C(=O)O)c2)C(=O)/C1=C/c1ccc(-c2ccccc2[N+](=O)[O-])o1, the Potency is reported as inconclusive [activator, single point].
For Cc1ccc(C(=O)C(NC(=O)c2ccco2)N2CCOCC2)cc1 (stereo unspecified), the Potency was inconclusive [activator, single point].
For C/C(=N/NC(=O)OC(C)(C)C)c1ccco1, the Potency was active: 2.51 µM.
With O=C(NC(=S)Nc1ccccc1Br)c1ccco1 the Potency was inconclusive [activator, single point].
For Cc1ccc2nc3sc(C(=O)Nc4c(C)[nH]c(=O)[nH]c4=O)c(N)c3cc2c1, the “activation, negative = inhibition” value was inactive: 0.641%.
In the case of O=C(Nc1ccccn1)c1ccc(S(=O)(=O)N2CCCCCC2)cc1, the Potency is reported as inconclusive [activator, partial curve].
For COc1ccc(S(=O)(=O)N2CCC(C(=O)Nc3ccc(S(=O)(=O)N4CCCC4)cc3)CC2)cc1OC, the “activation, negative = inhibition” value was inactive: 2.12%.
With O=C(NNC(=S)Nc1ccccc1)c1cccc(S(=O)(=O)N2CCOCC2)c1 the Potency was inconclusive [activator, single point].
With CCc1cc2c(=O)n(-c3ccc(C)cc3)cnc2s1 the Potency was active: 2.51 µM.
For COc1cccc2c1CCc1c-2nc2ccccc2c1C(=O)O, the Potency was inconclusive [activator, partial curve].
With Cc1csc(Nc2nc(N)c(C(=O)Nc3ccccc3)o2)n1 the Potency was inconclusive [activator, partial curve].
With CSc1ccc(/C=N/Nc2ccc(Cl)c(C(=O)O)c2)cc1 the Potency was inconclusive [activator, full curve, poor fit].
With CC(=O)Nc1ccc(-c2csc(NCCc3ccccc3)n2)cc1 the Potency was inconclusive [activator, partial curve].
In the case of Brc1cccc(OCCSc2ncccn2)c1, the Potency is reported as inconclusive [activator, single point].
For Cc1ccsc1C(=O)NNC(=O)c1cccc(S(=O)(=O)N2CCCC2)c1, the “activation, negative = inhibition” value was inactive: 1.65%.
In the case of COc1ccc(CNC(=O)C(CC(C)C)NC(=O)c2ccccc2C)cc1 (stereo unspecified), the “activation, negative = inhibition” value is reported as inactive: 6.56%.
For O=C(CCN1C(=O)C2CCCCC2C1=O)Nc1nc(-c2ccccc2)cs1 (stereo unspecified), the Potency was inconclusive [activator, single point].
